Hit rate of the full screen: of about 420,000 compounds, about 64,000 (15%) were called active. Inconclusive results, whose numbers are uncertain, are shown with a selection of clear calls. The call rests on the fitted dose curve; in most records, active means well fitted inhibition curve with a large enough effect; inconclusive means small, poorly fitted or top-dose-only effect; inactive means flat fitted curve, though single readings scatter. Potencies of inconclusive entries are left out as doubtful fits.
Assay: qHTS for Inhibitors of human tyrosyl-DNA phosphodiesterase 1 (TDP1): qHTS in cells in absence of CPT; further: nearly all actives have a fitted effect of over 55% in size
Settings: DT40 Tdp1-/- hTDP1 cells, no CPT, ATP luminescence, 48 h; series mostly up to 46.2 µM
Procedure, shortened: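 Growth kinetics read by CellTiter-Glo luminescence after ≥48 hr at 37 °C. Cells: DT40 Tdp1-/- stably carrying human TDP1, 400 per well, compound exposure in the absence of CPT (DMSO vehicle).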
Potency means the concentration at half of the fitted maximal effect; tags describe the fitted curve by direction and shape.

SMILES	Potency
Fc1ccccc1C1c2cccn2CCN1C(=S)Nc1ccc(Br)cc1 (stereo unspecified)	inconclusive [inhibitor, partial curve, poor fit]
COc1cccc(C(=O)NCC(c2ccc3c(c2)OCO3)N2CCN(c3ccc(F)cc3)CC2)c1 (stereo unspecified)	active: 10.3 µM
CCOC(=O)c1cnc(Nc2ccc(OCC)cc2)nc1C	inactive
O=C(O)COc1cccc(/C=C2/SC(=S)N(Cc3ccccc3)C2=O)c1	inactive
CCN(CC)C(=O)C1=C(C)N(Cc2ccc(OC)cc2)C(=O)C(CC(=O)NCc2ccco2)C1 (stereo unspecified)	inactive
CCCOc1ccccc1-c1nc2n[nH]nc2c(=O)[nH]1	inconclusive [inhibitor, partial curve, poor fit]
Cc1ccc(CNC(=O)COc2ccc(C)nc2[N+](=O)[O-])cc1	inactive
Cc1ccc(-c2nc(CN3CCN(C(=O)C4CCCO4)CC3)cs2)cc1 (stereo unspecified)	inconclusive [inhibitor, single point]
CN(C)c1ccc(-c2cncnc2NCCN2CCOCC2)cc1	active: 1.16 µM
Cc1c(C(=O)NCc2ccc3c(c2)OCO3)sc2nc(-c3ccc(F)cc3)cn12	active: 16.4 µM
Cc1ccc2[nH]c(-c3ccccc3)c(CN3CCCC3)c(=O)c2c1	inactive
CC1=C(c2ccc(C)c(C)c2)S(=O)(=O)N=C1N1CCC(C(=O)N2CCCCC2)CC1	inconclusive [inhibitor, single point]
CCOc1ccc(CNC(=O)CCc2cn(CC)c3ccccc23)cc1	inconclusive [inhibitor, single point]
Cc1cc(C(=O)Nc2ccc(C)c(S(=O)(=O)N3CCOCC3)c2)c2ccccc2n1	inconclusive [inhibitor, single point]
CC(OC(=O)CC1CCCC1)C(=O)Nc1ccc(Cl)cn1 (stereo unspecified)	inactive
O=C(NCCc1ccccc1)c1ccc(CSc2nc3ccncc3n2Cc2cccc(F)c2)cc1	active: 11.6 µM
CCC(C)Sc1ccc([C@H]2N[C@@](CC(C)C)(C(=O)OC)[C@H]3C(=O)N(CC)C(=O)[C@@H]23)cc1 (stereo partly specified)	inconclusive [inhibitor, single point]
COc1cc(C(=O)Nc2ccc(OCc3cc(=O)n4cccc(C)c4n3)cc2)cc(OC)c1OC	inconclusive [inhibitor, partial curve]
Brc1cccc(-c2nnco2)c1	inactive
CCc1ccc(NC(=O)C2CCN(S(=O)(=O)c3c(C)noc3/C=C\c3ccc(OC)cc3)CC2)cc1	active: 5.17 µM
OC(COCc1cccs1)CN1CCN(c2cccc(Cl)c2)CC1 (stereo unspecified)	inactive

— PubChem BioAssay AID686978 (National Center for Advancing Translational Sciences (NCATS), 2013)
